Publication PMC12820563, “FoxP3 forms a head-to-head dimer in vivo and stabilizes its multimerization on adjacent microsatellites”
This is one part of the list.

The sequences below were run against T1, MBP-FoxP1dN (Mus musculus, UniProt P58462 326-579) (assay: PD-seq (MBP pull-down with sequencing); 20 mM Tris-HCl pH 7.5, 100 mM NaCl, 1.5 mM MgCl2, 0.4 uM protein, 0.1 uM dsDNA library, 30 min, room temperature, amylose pull-down; high values mean tight binding). Settings: protein: recombinant; tags: His6-MBP; chain copies: 2; dsDNA, one strand shown.
T1 sequence: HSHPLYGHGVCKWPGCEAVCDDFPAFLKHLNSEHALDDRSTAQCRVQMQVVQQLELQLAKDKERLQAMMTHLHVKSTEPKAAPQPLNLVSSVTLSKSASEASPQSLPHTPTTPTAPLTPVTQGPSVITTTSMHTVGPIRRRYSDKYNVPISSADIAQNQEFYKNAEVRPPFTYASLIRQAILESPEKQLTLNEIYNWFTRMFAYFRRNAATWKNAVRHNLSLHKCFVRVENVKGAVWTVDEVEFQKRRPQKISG
Method in brief: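 Protein and DNA were mixed at 0.4 µM and 0.1 µM and held for 30 min at room temperature in Tris pH 7.5 buffer with NaCl and MgCl2; the protein was a His6-MBP-tagged, N-terminally truncated mouse FoxP3 or FoxP1 fragment from E. coli, and the DNA a Klenow-filled double-stranded degenerate library. Amylose resin captured the complexes, which were washed three times. Binding is read as reads-per-million enrichment of pull-down versus input after Illumina sequencing, with replicates pooled.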

Sequence | binding signal
GATGATTGTTCTCCCAGCTGATGAATTGGCCGTCTCGAGTAAACAAATTTTCCTAATCTTTCTGTTCAAGCGCCATCTAC | 0.741 RPM ratio (pull-down/input)
GATGATTGTTCTCCCAGCTGATGAATTATCTTCATCGAGTAAACAAATTTTCCTAATCTTTCTGTTCAAGCGCCATCTAC | 1.09 RPM ratio (pull-down/input)
GATGATTGTTCTCCCAGCTGATGAATTGCAATGATCGAGTAAACAAATTTTCCTAATCTTTCTGTTCAAGCGCCATCTAC | 1.2 RPM ratio (pull-down/input)
GATGATTGTTCTCCCAGCTGATGAATTGTGGGATTCGAGTAAACAAATTTTCCTAATCTTTCTGTTCAAGCGCCATCTAC | 0.936 RPM ratio (pull-down/input)
GATGATTGTTCTCCCAGCTGATGAATTTTCTTGCTCGAGTAAACAAATTTTCCTAATCTTTCTGTTCAAGCGCCATCTAC | 0.932 RPM ratio (pull-down/input)
GATGATTGTTCTCCCAGCTGATGAATTAACTGAGTCGAGTAAACAAATTTTCCTAATCTTTCTGTTCAAGCGCCATCTAC | 0.877 RPM ratio (pull-down/input)
GATGATTGTTCTCCCAGCTGATGAATTAACGGCATCGAGTAAACAAATTTTCCTAATCTTTCTGTTCAAGCGCCATCTAC | 1.05 RPM ratio (pull-down/input)
GATGATTGTTCTCCCAGCTGATGAATTTCTGGAGTCGAGTAAACAAATTTTCCTAATCTTTCTGTTCAAGCGCCATCTAC | 0.846 RPM ratio (pull-down/input)
GATGATTGTTCTCCCAGCTGATGAATTACGTTTGTCGAGTAAACAAATTTTCCTAATCTTTCTGTTCAAGCGCCATCTAC | 1.19 RPM ratio (pull-down/input)
GATGATTGTTCTCCCAGCTGATGAATTTATATCTTCGAGTAAACAAATTTTCCTAATCTTTCTGTTCAAGCGCCATCTAC | 1.12 RPM ratio (pull-down/input)
GATGATTGTTCTCCCAGCTGATGAATTTCTCGGATCGAGTAAACAAATTTTCCTAATCTTTCTGTTCAAGCGCCATCTAC | 0.846 RPM ratio (pull-down/input)
GATGATTGTTCTCCCAGCTGATGAATTTAATTGCTCGAGTAAACAAATTTTCCTAATCTTTCTGTTCAAGCGCCATCTAC | 1.22 RPM ratio (pull-down/input)
GATGATTGTTCTCCCAGCTGATGAATTACTCTCTTCGAGTAAACAAATTTTCCTAATCTTTCTGTTCAAGCGCCATCTAC | 1.02 RPM ratio (pull-down/input)
GATGATTGTTCTCCCAGCTGATGAATTCGACTTGTCGAGTAAACAAATTTTCCTAATCTTTCTGTTCAAGCGCCATCTAC | 0.829 RPM ratio (pull-down/input)
GATGATTGTTCTCCCAGCTGATGAATTGCTCGCCTCGAGTAAACAAATTTTCCTAATCTTTCTGTTCAAGCGCCATCTAC | 1.05 RPM ratio (pull-down/input)
GATGATTGTTCTCCCAGCTGATGAATTTATGGCTTCGAGTAAACAAATTTTCCTAATCTTTCTGTTCAAGCGCCATCTAC | 1.12 RPM ratio (pull-down/input)
GATGATTGTTCTCCCAGCTGATGAATTGTGCTTATCGAGTAAACAAATTTTCCTAATCTTTCTGTTCAAGCGCCATCTAC | 1.66 RPM ratio (pull-down/input)
GATGATTGTTCTCCCAGCTGATGAATTGACTTATTCGAGTAAACAAATTTTCCTAATCTTTCTGTTCAAGCGCCATCTAC | 1.09 RPM ratio (pull-down/input)
GATGATTGTTCTCCCAGCTGATGAATTTCGCGCCTCGAGTAAACAAATTTTCCTAATCTTTCTGTTCAAGCGCCATCTAC | 0.95 RPM ratio (pull-down/input)
GATGATTGTTCTCCCAGCTGATGAATTAGAGGCATCGAGTAAACAAATTTTCCTAATCTTTCTGTTCAAGCGCCATCTAC | 1.15 RPM ratio (pull-down/input)

Sequence | binding signal
GATGATTGTTCTCCCAGCTGATGAATTTCAGGCGTCGAGTAAACAAATTTTCCTAATCTTTCTGTTCAAGCGCCATCTAC | 0.868 RPM ratio (pull-down/input)
GATGATTGTTCTCCCAGCTGATGAATTAAGGCCGTCGAGTAAACAAATTTTCCTAATCTTTCTGTTCAAGCGCCATCTAC | 0.833 RPM ratio (pull-down/input)
GATGATTGTTCTCCCAGCTGATGAATTATGTTATTCGAGTAAACAAATTTTCCTAATCTTTCTGTTCAAGCGCCATCTAC | 2.18 RPM ratio (pull-down/input)
GATGATTGTTCTCCCAGCTGATGAATTCTGTTCGTCGAGTAAACAAATTTTCCTAATCTTTCTGTTCAAGCGCCATCTAC | 0.88 RPM ratio (pull-down/input)
GATGATTGTTCTCCCAGCTGATGAATTTGCTAATTCGAGTAAACAAATTTTCCTAATCTTTCTGTTCAAGCGCCATCTAC | 1.05 RPM ratio (pull-down/input)
GATGATTGTTCTCCCAGCTGATGAATTGGACGCATCGAGTAAACAAATTTTCCTAATCTTTCTGTTCAAGCGCCATCTAC | 1.17 RPM ratio (pull-down/input)
GATGATTGTTCTCCCAGCTGATGAATTTGCAGAATCGAGTAAACAAATTTTCCTAATCTTTCTGTTCAAGCGCCATCTAC | 1.02 RPM ratio (pull-down/input)
GATGATTGTTCTCCCAGCTGATGAATTCGACCTGTCGAGTAAACAAATTTTCCTAATCTTTCTGTTCAAGCGCCATCTAC | 0.713 RPM ratio (pull-down/input)
GATGATTGTTCTCCCAGCTGATGAATTGTCCGACTCGAGTAAACAAATTTTCCTAATCTTTCTGTTCAAGCGCCATCTAC | 0.891 RPM ratio (pull-down/input)
GATGATTGTTCTCCCAGCTGATGAATTTAGGACATCGAGTAAACAAATTTTCCTAATCTTTCTGTTCAAGCGCCATCTAC | 1.1 RPM ratio (pull-down/input)
GATGATTGTTCTCCCAGCTGATGAATTCTCTTCCTCGAGTAAACAAATTTTCCTAATCTTTCTGTTCAAGCGCCATCTAC | 0.79 RPM ratio (pull-down/input)
GATGATTGTTCTCCCAGCTGATGAATTGCGTCTATCGAGTAAACAAATTTTCCTAATCTTTCTGTTCAAGCGCCATCTAC | 1.14 RPM ratio (pull-down/input)
GATGATTGTTCTCCCAGCTGATGAATTTTGACCGTCGAGTAAACAAATTTTCCTAATCTTTCTGTTCAAGCGCCATCTAC | 0.879 RPM ratio (pull-down/input)
GATGATTGTTCTCCCAGCTGATGAATTAAACGGCTCGAGTAAACAAATTTTCCTAATCTTTCTGTTCAAGCGCCATCTAC | 0.714 RPM ratio (pull-down/input)
GATGATTGTTCTCCCAGCTGATGAATTATATAACTCGAGTAAACAAATTTTCCTAATCTTTCTGTTCAAGCGCCATCTAC | 1.05 RPM ratio (pull-down/input)
GATGATTGTTCTCCCAGCTGATGAATTATACGATTCGAGTAAACAAATTTTCCTAATCTTTCTGTTCAAGCGCCATCTAC | 0.976 RPM ratio (pull-down/input)
GATGATTGTTCTCCCAGCTGATGAATTTCCTTGGTCGAGTAAACAAATTTTCCTAATCTTTCTGTTCAAGCGCCATCTAC | 0.824 RPM ratio (pull-down/input)
GATGATTGTTCTCCCAGCTGATGAATTTATAAAATCGAGTAAACAAATTTTCCTAATCTTTCTGTTCAAGCGCCATCTAC | 1.33 RPM ratio (pull-down/input)
GATGATTGTTCTCCCAGCTGATGAATTCCCGTGGTCGAGTAAACAAATTTTCCTAATCTTTCTGTTCAAGCGCCATCTAC | 0.811 RPM ratio (pull-down/input)
GATGATTGTTCTCCCAGCTGATGAATTTATGAGTTCGAGTAAACAAATTTTCCTAATCTTTCTGTTCAAGCGCCATCTAC | 1.23 RPM ratio (pull-down/input)
